The campaign covered roughly 310,000 compounds. About 18,000 (5.8%) were called active. Inconclusive means that the source gave no clear call. Such entries were picked first, then a sample of the others. The call rests on the fitted dose curve; in most records, active means well fitted inhibition curve with a large enough effect; inconclusive means small, poorly fitted or top-dose-only effect, or another doubt; inactive means no such curve, though single readings can be large or run the other way. Potencies of inconclusive entries are left out as doubtful fits.
Test: Primary qHTS for delayed death inhibitors of the malarial parasite plastid, 48 hour incubation
Conditions: P. falciparum luciferase growth in erythrocytes; series mostly up to 28.7 µM; activity change, negative = inhibition: at the top concentration
Procedure, shortened: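 Here the parasites carry a stable luciferase gene and grow inside erythrocytes in Albumax-based RPMI medium with compound for one erythrocytic cycle. Activity is scored as loss of luminescent signal.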
On the % scale 0 is the no-effect control and ±100 the full control effect; potency means the concentration at half of the fitted maximal effect; tags describe the fitted curve by direction and shape.

| Compound | activity change, negative = inhibition | Potency |
| --- | --- | --- |
| CC(C)(C)C(=O)OCc1nc(-c2ccc(Cl)cc2)cs1 | inactive: 377% | – |
| COc1ccc(OC(=O)Nc2ccccc2)cc1 | inactive: 32.5% | – |
| CC1CC(C#N)N(N(C)C)C1=C(C#N)C#N (centres undefined) | inactive: 6.24% | – |
| Cc1ccc(NC(=O)CN(C)CC(=O)Nc2sc3c(c2C(N)=O)CCC3)cc1 | – | inconclusive [inhibitor, partial curve, poor fit] |
| CCOc1ccc(S(=O)(=O)N2CCCCC2)cc1NC(=O)C1COc2ccccc2O1 (centres undefined) | – | active: 6.57 µM |
| Cc1csc(CN(C)C(=O)CC2C(=O)NCCN2Cc2ccc(-c3ccccc3)cc2)n1 (centres undefined) | inactive: 19.3% | – |
| O=C(NC(=S)Nc1ccccc1[N+](=O)[O-])c1ccccc1Cl | inactive: -29% | – |
| O=C(NNC(=O)c1ccccc1OCc1ccccc1Cl)c1csc(N2CCOCC2)n1 | – | inconclusive [inhibitor, single point] |
| O=C(CCNC(=O)c1ccc(Br)o1)NC1CCCC1 | – | inconclusive [inhibitor, partial curve, poor fit] |
| O=C(CCC1CCCN(C(=O)c2ccsc2)C1)N1CCN(c2ccccn2)CC1 (centres undefined) | – | inconclusive [inhibitor, partial curve, poor fit] |
| CCCN(CC(=O)Nc1ccccc1OC)C(=O)c1ccc2[nH]c3c(c2c1)CC(C)CC3 (centres undefined) | – | inconclusive [inhibitor, single point] |
| Nc1nc(N)nc(-c2cc(F)ccc2O)n1 | – | inconclusive [inhibitor, partial curve] |
| O=C1c2ccccc2C(=O)c2c1cccc2N1CCN(CCO)CC1 | – | inconclusive [inhibitor, partial curve, poor fit] |
| COC(=O)c1c(NC(=O)CCCC(=O)O)sc2c1CCC2 | – | inconclusive [inhibitor, single point] |
| COC(=O)c1ccc(Cc2ccccc2)o1 | inactive: 17.1% | – |
| CN(C)c1nc(SCCOC(=O)c2ccccc2)nc(N(C)C)n1 | inactive: -13.1% | – |
| CCCCn1c(O)c(C(C)=NCCc2c[nH]c3ccccc23)c(=O)[nH]c1=O | – | inconclusive [inhibitor, single point] |
| CCOC(=O)C(=CNNc1ccsc1C(=O)OC)C(=O)OCC | – | inconclusive [inhibitor, partial curve, poor fit] |
| O=C(Nc1nc2ccccc2n1CCN1CCCC1)C1CCCCC1 | – | inconclusive [inhibitor, single point] |
| CCOC(=O)c1c(C)n(C)c2ccc(OC)c(NC(=O)CN3CCN(Cc4ccccc4)CC3)c12 | – | active: 10.4 µM |
| CN(C)Cc1ccccc1Cc1ccccc1 | inactive: 2.94% | – |
| Cc1c(Cl)c(=O)oc2cc(OP(=O)(OCCCl)OCCCl)ccc12 | – | active: 13.5 µM |
| CC(C)(C)OC(=O)N1CCC[C@H]1C(=O)OCC(=O)Nc1cc(S(C)(=O)=O)ccc1Cl | inactive: 5.02% | – |

| Compound | activity change, negative = inhibition | Potency |
| --- | --- | --- |
| Cc1cccc(-c2cccc(NC(=O)C3CCCN(C(=O)c4csc(C)n4)C3)c2)c1 (centres undefined) | – | inconclusive [inhibitor, single point] |
| O=C(c1ccco1)N1N=C(c2cccs2)CC1c1ccccc1O (centres undefined) | – | active: 8.28 µM |
| COc1cc2ccccc2cc1C(=O)N1CCN(c2ccccc2O)CC1 | – | inconclusive [inhibitor, single point] |
| Cc1ccc(NC(=O)C2CCN(S(=O)(=O)c3ccc4c(c3)CCCC(=O)N4)CC2)cc1N(C)C | – | inconclusive [inhibitor, single point] |
| Cc1ccc(-n2nnnc2SCC(=O)c2c(N)n(C3CC3)c(=O)[nH]c2=O)c(C)c1 | – | active: 10.4 µM |
| COc1ccc(C)cc1-n1nnnc1SCC(=O)NC(=O)NCc1ccco1 | – | inconclusive [inhibitor, partial curve, poor fit] |
| N#CC1(Cc2ccccc2)c2ccccc2C=CN1C(=O)c1ccccc1 (centres undefined) | – | inconclusive [inhibitor, partial curve, poor fit] |
| COc1ccc(OC)c(NC(=O)C2CCN(S(=O)(=O)c3ccc4c(c3)CC(C)N4C(C)=O)CC2)c1 (centres undefined) | – | inconclusive [inhibitor, partial curve] |
| O=C(CSc1ccc(F)cc1)Nc1ccccc1Br | – | inconclusive [inhibitor, full curve, poor fit] |
| CC1(C)CC(=O)C2=C(C1)OC1=C(C(=O)CC(C)(C)C1)C2c1ccc(O)c([N+](=O)[O-])c1 | – | inconclusive [inhibitor, partial curve, poor fit] |
| O=C(CSc1nc2ccccc2c(=O)n1C1CC1)NCc1ccccc1 | inactive: -9.15% | – |
| CCOc1cccc(/C=N/Nc2ccc(S(=O)(=O)N(CC)CC)cn2)c1O | – | active: 2.94 µM |
| COCCn1ccc2c(OCC(=O)Nc3cccc(NC(C)=O)c3)cccc2c1=O | inactive: -28.6% | – |
| CN(Cc1ccco1)C(=O)Cn1nc(-c2ccc(Cl)cc2)ccc1=O | inactive: -9.71% | – |
| CC(C)c1ccc(C2/C(=C(/O)c3ccccc3)C(=O)C(=O)N2CCCN2CCOCC2)cc1 (centres undefined) | – | inconclusive [inhibitor, full curve, poor fit] |
| CCOC(=O)c1nc(N/N=C/c2ccccc2)sc1Br | inactive: 16.9% | – |
| O=C1COc2ccc(C(=O)CSc3nc4ccccc4c(=O)n3-c3ccc(Cl)c(Cl)c3)cc2N1 | – | active: 10.4 µM |
| CN1C(=O)/C(=C/c2ccccc2F)Sc2ccc(C(=O)NCC3CCCO3)cc21 (centres undefined) | – | inconclusive [inhibitor, partial curve, poor fit] |
| CC1CCC(C(C)C)C(OCC(O)CN2CCN(Cc3ccccc3)CC2)C1 (centres undefined) | – | active: 11.7 µM |
| COc1ccc(/C=C/C(=O)Nc2ccc3nc4n(c(=O)c3c2)CCCC4)cc1 | – | inconclusive [inhibitor, full curve, poor fit] |
| CCCCCc1ccc(C2=NNC(=O)CC2)cc1 | inactive: 58.8% | – |
| CS(=O)(=O)N1Cc2ccccc2CC1C(=O)Nc1ccccc1C(N)=O (centres undefined) | inactive: 23.9% | – |
| O=C(Nc1ccccc1)c1ccc(NCC2CCCO2)c(S(=O)(=O)N2CCOCC2)c1 (centres undefined) | – | inconclusive [inhibitor, single point] |

| Compound | activity change, negative = inhibition | Potency |
| --- | --- | --- |
| CCc1nnc(NC(=O)c2ccc(S(C)(=O)=O)cc2)s1 | inactive: 70.2% | – |
| Cc1cc(=O)oc2cc(OC(C)C(=O)Nc3ccc(N4CCCCC4)cc3)ccc12 (centres undefined) | – | inconclusive [inhibitor, single point] |
| Cc1ccc(C)c(NC(=O)CSc2nnc([C@@H](N)Cc3c[nH]c4ccccc34)o2)c1 | – | inconclusive [inhibitor, single point] |
| Cc1cc(NC(=O)CN2CCN(Cc3ccccc3)CC2)nc2c1c(=O)oc1ccccc12 | – | inconclusive [inhibitor, single point] |
| Cc1ccc(NS(=O)(=O)c2cccc(C(=O)NCC3(N(C)C)CCCCC3)c2)cc1 | – | inconclusive [inhibitor, single point] |
| COc1ccc(C2CC(c3ccccc3)n3nc(NC(=O)c4cccs4)nc3N2)cc1 (centres undefined) | – | inconclusive [inhibitor, single point] |
| COC(=O)c1c(C)oc(C)c1S(=O)(=O)N1CCOCC1 | inactive: 34.5% | – |
| CC1(C)Oc2ccc3ccc(=O)oc3c2/C(=C/Nc2cccc(O)c2)C1=O | – | active: 13.1 µM |
| CCCOc1ccc(C(=O)C(CCC(CNCC)C(=O)c2ccc(OCCC)cc2)CNCC)cc1 (centres undefined) | – | active: 1.85 µM |
| Cc1ccc(NC(=O)C2COc3ccccc3O2)cc1C (centres undefined) | inactive: 98.1% | – |
| COc1ccccc1NC(=S)N(CCc1ccc(OC)c(OC)c1)Cc1ccccn1 | – | inconclusive [inhibitor, single point] |
| O=C1C=C(c2cccc(Cl)c2)C[C@@H](c2ccc3c(c2)OCO3)C1 | – | inconclusive [inhibitor, partial curve, poor fit] |
| CC(C)(C)Nc1nc(N2CCCC2)nc(N2CCCC2)n1 | – | inconclusive [inhibitor, partial curve] |
| COc1ccc(C(=O)C2CCCN(Cc3cc(Cl)ccc3O)C2)c(OC)c1 (centres undefined) | – | inconclusive [inhibitor, full curve, poor fit] |
| COc1ccc(CN(CCN(C)C)Cc2ccccc2)c(OC)c1 | – | active: 13.1 µM |
| O=C(NC12CC3CC(CC(C3)C1)C2)OCCNC1CCCCC1 | – | inconclusive [inhibitor, partial curve, poor fit] |
| CN(C)CCCSc1nc(-c2ccccc2)nc2c1CCC2 | – | inconclusive [inhibitor, full curve, poor fit] |
| Cc1cnccc1CNC(=O)CC1C(=O)NCCN1CC(C)(C)C (centres undefined) | – | inconclusive [inhibitor, full curve, poor fit] |
| CCN(CC(=O)Nc1ccc(OC)cc1)CC(=O)Nc1sc2c(c1C(=O)OC)CCCC2 | – | inconclusive [inhibitor, single point] |
| ONc1cccnc1-n1nc(C(F)(F)F)cc1C(F)(F)F | – | inconclusive [inhibitor, single point] |
| CCS(=O)(=O)Nc1cccc(C2=NN(S(=O)(=O)c3ccc(F)cc3)C(c3cccs3)C2)c1 (centres undefined) | – | inconclusive [inhibitor, single point] |
| O=[N+]([O-])c1cc(-c2nc3nc4ccccc4nc3n2CCc2ccccc2)cc([N+](=O)[O-])c1 | – | inconclusive [inhibitor, partial curve] |
| COc1ccc(N2CCN(/C(=N\S(=O)(=O)c3ccccc3)Nc3nc(C)cc(C)n3)CC2)cc1 | – | inconclusive [inhibitor, single point] |

From PubChem BioAssay AID504832 (National Center for Advancing Translational Sciences (NCATS), 2011)
